Reference: a compilation of properties of binary mixtures (doi:10.1021/acs.jced.9b00769)
Some of these densities may be calculated back from excess volumes.

Experiment: xn = mol fraction of the nth substance listed
Details: 100 kPa

OCCN(CCO)CCO + CCCCCCCCCCCC[P+](CC)(CC)CC.N#Cc1ccc[n-]1
x2 = 0
Details | mass density [kg/m3]
293.15 K | 1123
298.15 K | 1120
303.15 K | 1117
313.15 K | 1111

OCCN(CCO)CCO + CCCCCCCCCCCC[P+](CCCC)(CCCC)CCCC.N#Cc1ccc[n-]1
x2 = 0
Details | mass density [kg/m3]
293.15 K | 1123
303.15 K | 1117
313.15 K | 1111

OCCN(CCO)CCO + CCCC[P+](CC)(CC)CC.N#Cc1ccc[n-]1
x2 = 0
Details | mass density [kg/m3]
293.15 K | 1123
298.15 K | 1120
303.15 K | 1117
313.15 K | 1111

CCCCCCCCCCCC[P+](CC)(CC)CC.N#Cc1ccc[n-]1 + OCCN(CCO)CCO
mass density [kg/m3]
Details | 293.15 K | 298.15 K | 303.15 K | 313.15 K
x1 = 0.005 | 1121 | 1118 | 1115 | –
x1 = 0.02 | 1112 | 1110 | 1107 | 1101
x1 = 0.042 | 1101 | 1098 | 1096 | –
x1 = 0.065 | 1091 | 1088 | – | –
x1 = 0.09 | 1080 | 1077 | – | 1069
x1 = 0.116 | 1070 | 1067 | – | –
x1 = 0.218 | 1039 | 1036 | 1034 | 1028
x1 = 0.299 | 1019 | 1016 | 1013 | 1008
x1 = 0.501 | 984 | – | 979 | –
x1 = 0.686 | – | 962 | 959 | 953
x1 = 0.809 | 954 | – | 948 | –
x1 = 1 | 948 | 945 | 942 | 936

CCCCCCCCCCCC[P+](CCCC)(CCCC)CCCC.N#Cc1ccc[n-]1 + OCCN(CCO)CCO
mass density [kg/m3]
Details | 293.15 K | 303.15 K | 313.15 K | 323.15 K
x1 = 0.004 | 1121 | 1116 | 1110 | 1104
x1 = 0.007 | 1119 | 1113 | 1108 | 1102
x1 = 0.01 | 1116 | 1111 | 1105 | 1100
x1 = 0.014 | 1114 | – | 1103 | 1097
x1 = 0.027 | 1105 | 1099 | – | 1088
x1 = 0.035 | – | 1094 | 1089 | 1083
x1 = 0.042 | 1095 | 1089 | – | 1078
x1 = 0.054 | 1087 | – | 1076 | –
x1 = 0.065 | 1081 | – | 1070 | –
x1 = 0.075 | 1075 | 1069 | – | 1058
x1 = 0.096 | – | 1059 | – | 1047
x1 = 0.121 | – | 1046 | 1041 | 1035
x1 = 0.177 | 1031 | 1025 | 1019 | 1013
x1 = 0.244 | 1010 | 1005 | 999 | 993
x1 = 0.324 | – | 986 | 980 | 974
x1 = 0.43 | 971 | 966 | 960 | 954
x1 = 0.538 | – | 951 | 945 | 939
x1 = 1 | – | – | 906 | 900

CCCC[P+](CC)(CC)CC.N#Cc1ccc[n-]1 + OCCN(CCO)CCO
mass density [kg/m3]
Details | x1 = 0.028 | x1 = 0.059 | x1 = 0.089 | x1 = 0.123 | x1 = 0.272 | x1 = 0.537 | x1 = 0.763 | x1 = 1
293.15 K | 1117 | 1109 | 1102 | 1096 | 1072 | 1033 | 1011 | 991
298.15 K | 1114 | 1106 | 1100 | 1093 | 1068 | 1030 | 1007 | 988
303.15 K | 1111 | 1103 | 1097 | – | 1065 | 1027 | 1004 | 985
313.15 K | 1106 | 1098 | 1091 | 1082 | 1059 | 1022 | 998 | 980
